Measurements published in article PMC4336329 (PLoS ONE, 2015).
In all, about 310,000 compounds went through this assay and about 2,200 (0.71%) showed an effect of 50% or more. The effect is printed as a negative number. The list shows a part of the results.

These compounds were tested against human ether-à-go-go-related gene (hERG) potassium channel (human, UniProt Q12809) (assay: primary screen, population patch clamp on CHO cells stably expressing hERG).
Sequence of human ether-à-go-go-related gene (hERG) potassium channel (Q12809 whole entry, looked up): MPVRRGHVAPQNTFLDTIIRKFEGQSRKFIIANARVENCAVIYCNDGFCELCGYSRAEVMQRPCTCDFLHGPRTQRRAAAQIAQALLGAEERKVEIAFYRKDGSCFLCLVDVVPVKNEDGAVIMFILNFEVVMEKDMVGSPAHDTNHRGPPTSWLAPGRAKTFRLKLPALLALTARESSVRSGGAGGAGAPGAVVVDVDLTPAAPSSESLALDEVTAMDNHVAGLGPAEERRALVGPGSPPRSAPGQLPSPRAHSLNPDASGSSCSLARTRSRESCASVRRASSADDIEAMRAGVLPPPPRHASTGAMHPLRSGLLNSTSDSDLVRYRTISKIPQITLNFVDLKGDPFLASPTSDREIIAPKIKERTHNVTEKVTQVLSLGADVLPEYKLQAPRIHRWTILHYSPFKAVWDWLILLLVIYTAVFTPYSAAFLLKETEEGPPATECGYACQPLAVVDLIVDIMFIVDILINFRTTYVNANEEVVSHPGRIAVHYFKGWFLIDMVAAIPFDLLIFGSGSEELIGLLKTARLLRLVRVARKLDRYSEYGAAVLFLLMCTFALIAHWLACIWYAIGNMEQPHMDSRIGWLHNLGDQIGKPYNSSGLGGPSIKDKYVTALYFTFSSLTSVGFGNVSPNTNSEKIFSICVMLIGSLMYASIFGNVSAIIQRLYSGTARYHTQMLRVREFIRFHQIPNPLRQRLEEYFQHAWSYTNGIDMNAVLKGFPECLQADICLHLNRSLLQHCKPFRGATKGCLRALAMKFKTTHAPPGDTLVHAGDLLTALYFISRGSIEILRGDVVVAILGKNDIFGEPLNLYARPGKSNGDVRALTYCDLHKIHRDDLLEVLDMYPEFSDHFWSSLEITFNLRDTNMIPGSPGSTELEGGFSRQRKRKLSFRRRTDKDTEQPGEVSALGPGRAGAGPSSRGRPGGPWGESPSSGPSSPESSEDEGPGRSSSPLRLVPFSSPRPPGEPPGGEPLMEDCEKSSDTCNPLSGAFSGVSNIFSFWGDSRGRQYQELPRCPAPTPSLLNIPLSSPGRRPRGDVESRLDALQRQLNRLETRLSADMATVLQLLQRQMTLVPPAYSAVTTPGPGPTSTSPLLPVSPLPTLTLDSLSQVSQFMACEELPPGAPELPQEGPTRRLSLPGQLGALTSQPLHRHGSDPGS
CC(=O)Nc1nc2n(n1)C(c1ccccc1)C=C(c1ccccc1)N2 (stereo not drawn) was tested, and the “hERG current change (%, negative = inhibition) at 1uM” value was 0.0514%.
With CS(=O)(=O)N(CC(=O)NCc1cccnc1)C1CCCCC1 the “hERG current change (%, negative = inhibition) at 1uM” value was 6.48%.
In the case of O=C(CCS(=O)(=O)c1ccccc1)Nc1nncs1, the “hERG current change (%, negative = inhibition) at 1uM” value is reported as 8.06%.
With CCCNC(=O)N1CCN(S(=O)(=O)c2ccc(C)c(C)c2)CC1 the “hERG current change (%, negative = inhibition) at 1uM” value was -7.15%.
Cc1ccccc1NC(=O)c1ocnc1C was tested, and the “hERG current change (%, negative = inhibition) at 1uM” value was 16.2%.
With C[n+]1c2n(c3ccccc31)N=C(c1ccccc1)CS2.[Br-] the “hERG current change (%, negative = inhibition) at 1uM” value was -17.3%.
O=Nc1c(-c2cccc([N+](=O)[O-])c2)nc2ncccn12 was tested, and the “hERG current change (%, negative = inhibition) at 1uM” value was 17.1%.
With Cc1nn(Cc2c(Cl)cccc2Cl)c(Cl)c1/C=C/C(=O)OCC(=O)NCC(F)(F)F the “hERG current change (%, negative = inhibition) at 1uM” value was 6.81%.
Cc1nc2cc(NC(=O)CSc3nc4c(C)cccc4cc3C#N)ccc2s1 was tested, and the “hERG current change (%, negative = inhibition) at 1uM” value was 16.7%.
For COc1ccccc1N1CCN(C(=O)Cn2nc(C(F)(F)F)c3c2CCC3)CC1, the “hERG current change (%, negative = inhibition) at 1uM” value was 12%.
For CCOC(=O)CSc1n[nH]c(=O)n1CCc1ccccc1, the “hERG current change (%, negative = inhibition) at 1uM” value was 4.16%.
For FC(F)(F)c1cccc(Oc2ccc3c(C(F)(F)F)cc(C(F)(F)F)nc3n2)c1, the “hERG current change (%, negative = inhibition) at 1uM” value was 6.61%.
CCCN1CCN(C(=O)Cn2ncc3c([nH]c4ccc(C)cc43)c2=O)CC1 was tested, and the “hERG current change (%, negative = inhibition) at 1uM” value was 12.7%.
For COc1cccc(CNC(=O)c2c(C)nn(-c3ccccc3)c2C)c1, the “hERG current change (%, negative = inhibition) at 1uM” value was 15.1%.
With COC(C(=O)N/N=C/c1ccc(OCC(=O)N2CCOCC2)cc1)c1ccccc1 (stereo not drawn) the “hERG current change (%, negative = inhibition) at 1uM” value was 15%.
CN(Cc1ccccc1)C(=O)c1[nH]cnc1C(=O)NCc1ccc(CNC(=O)OC(C)(C)C)cc1 was tested, and the “hERG current change (%, negative = inhibition) at 1uM” value was 16%.
CCN(Cc1nc2ccccc2c(=O)[nH]1)C(=O)COc1ccccc1-c1ccccc1 was tested, and the “hERG current change (%, negative = inhibition) at 1uM” value was 11.5%.
In the case of O=c1c2cc3c(nc2[nH]c(=S)n1-c1ccccc1)CCCC3, the “hERG current change (%, negative = inhibition) at 1uM” value is reported as 7.73%.
In the case of CCOc1ccccc1NC(=O)c1cccc(NC2=NC3CS(=O)(=O)CC3S2)c1 (stereo not drawn), the “hERG current change (%, negative = inhibition) at 1uM” value is reported as 8.57%.
For COC(=O)c1cc(Br)c(=O)n(Cc2cccnc2)c1, the “hERG current change (%, negative = inhibition) at 1uM” value was 16.4%.
With CC(C)CC(CO)N1CCN(C(=O)c2ccc(C(C)(C)C)cc2)CCC1=O (stereo not drawn) the “hERG current change (%, negative = inhibition) at 1uM” value was 15.8%.
With CC(=O)NC(Cc1ccc(F)cc1)C(=O)NC1CCN(C(=O)Nc2ccccc2C)CC1 (stereo not drawn) the “hERG current change (%, negative = inhibition) at 1uM” value was 7.49%.
With COC(=O)Cn1c(CCS(=O)(=O)c2ccc(C)c(C)c2)nc2ccccc21 the “hERG current change (%, negative = inhibition) at 1uM” value was 13.8%.
For COc1cc(/C=N/NC(=O)c2ccc(CSc3nncn3C)cc2)cc(OC)c1O, the “hERG current change (%, negative = inhibition) at 1uM” value was 6.17%.
In the case of Cc1nc(SCC(C)C)[nH]c(=O)c1Cc1ccccc1, the “hERG current change (%, negative = inhibition) at 1uM” value is reported as 4.63%.
In the case of COC(=O)c1ccc(CNC(=O)CSc2nnc(COc3ccccc3)n2C)o1, the “hERG current change (%, negative = inhibition) at 1uM” value is reported as -0.261%.
In the case of COc1ccc(-c2nc3ccc([N+](=O)[O-])cc3[nH]2)cc1, the “hERG current change (%, negative = inhibition) at 1uM” value is reported as 17%.
For Cc1cc(NC(=O)COC(=O)c2cc(S(=O)(=O)N(C)c3ccccc3)ccc2Cl)no1, the “hERG current change (%, negative = inhibition) at 1uM” value was 14%.
For O=S(=O)(Cc1nnnn1-c1ccccc1)c1ccc(Cl)cc1, the “hERG current change (%, negative = inhibition) at 1uM” value was 18.7%.
With COc1cc(OC)c(/C=N/NC(=O)COc2cccc3cccnc23)c(OC)c1 the “hERG current change (%, negative = inhibition) at 1uM” value was 12.7%.
For O=C(c1cc(-c2cccs2)on1)N1CCCCC1, the “hERG current change (%, negative = inhibition) at 1uM” value was 6.81%.
For O=C(NC1CCCCC1)N1CCCc2ccccc21, the “hERG current change (%, negative = inhibition) at 1uM” value was 3.81%.
With CC/C(=N\NC(=O)CSc1ncccn1)c1ccc2c(c1)OCCO2 the “hERG current change (%, negative = inhibition) at 1uM” value was 10.3%.
For CON(C)S(=O)(=O)c1ccc2c(c1)N(Cc1ccc(C)cc1)C(=O)C1CCCN21 (stereo not drawn), the “hERG current change (%, negative = inhibition) at 1uM” value was 14.1%.
With C=CCn1c(SC)nnc1-c1cccc([N+](=O)[O-])c1 the “hERG current change (%, negative = inhibition) at 1uM” value was 1.48%.
In the case of C=CCNC(=O)c1ccccc1NC(=O)c1ccccc1, the “hERG current change (%, negative = inhibition) at 1uM” value is reported as 12.7%.
In the case of Cc1nn(CC(=O)N2CCN(C)CC2)c(=O)c2ccccc12, the “hERG current change (%, negative = inhibition) at 1uM” value is reported as 2.44%.
With COC(=O)N/N=C/c1ccc(Oc2ccccc2)cc1 the “hERG current change (%, negative = inhibition) at 1uM” value was 3.75%.
With COc1ccc(NC(=O)COc2ccc(C(=O)c3ccc(F)cc3)cc2)cc1S(N)(=O)=O the “hERG current change (%, negative = inhibition) at 1uM” value was 14.7%.
In the case of CCOC(=O)c1c(NC(C)=O)sc2c1CCC(C=O)=C2Sc1ccccc1, the “hERG current change (%, negative = inhibition) at 1uM” value is reported as 3.5%.
For COc1ccc(Cc2noc(CN3CCCC(C(=O)c4cccs4)C3)n2)cc1OC (stereo not drawn), the “hERG current change (%, negative = inhibition) at 1uM” value was 9.47%.
CC(C)(C)c1cc(C(=O)O)nn1-c1ccccc1 was tested, and the “hERG current change (%, negative = inhibition) at 1uM” value was 13.6%.
CCn1cc([N+](=O)[O-])c(C(=O)Nc2ccc(Br)cn2)n1 was tested, and the “hERG current change (%, negative = inhibition) at 1uM” value was -14.8%.
O=C(Nc1ccnn1C1CCN(CCCC2CCCC2)CC1)c1ccccc1 was tested, and the “hERG current change (%, negative = inhibition) at 1uM” value was -60.9%.
CCOc1cc(/C=C2\C(=O)ON=C2c2ccccc2)ccc1OC was tested, and the “hERG current change (%, negative = inhibition) at 1uM” value was 17.4%.
With COc1cc(OC)cc(-c2nnc(Sc3ccc(C=O)cc3[N+](=O)[O-])o2)c1 the “hERG current change (%, negative = inhibition) at 1uM” value was 0.431%.
With Cc1cccc(N2CC(c3nc4ccccc4n3C)CC2=O)c1C (stereo not drawn) the “hERG current change (%, negative = inhibition) at 1uM” value was 2.01%.
For c1ccc(CSc2nnnn2-c2ccccc2)cc1, the “hERG current change (%, negative = inhibition) at 1uM” value was 9.14%.
For COc1ccc(-c2noc(CCC(=O)NCC3CCN(Cc4cccc(C)c4)CC3)n2)cc1, the “hERG current change (%, negative = inhibition) at 1uM” value was -35.5%.
For CCCn1c(C(O)c2ccc(OC)cc2)nc2ccccc21 (stereo not drawn), the “hERG current change (%, negative = inhibition) at 1uM” value was 10.6%.
For N#CCCN(C(=O)CSc1ncccn1)c1ccc2c(c1)OCCO2, the “hERG current change (%, negative = inhibition) at 1uM” value was 3.53%.
COc1ccccc1C(=O)NCCC(=O)NNC(=O)Cn1ccc(C(F)(F)F)n1 was tested, and the “hERG current change (%, negative = inhibition) at 1uM” value was -0.724%.
For CC(C)(Cc1nc2ccccc2[nH]1)C(=O)O, the “hERG current change (%, negative = inhibition) at 1uM” value was -3.82%.
With COc1ccc(/C=C2\N=C(C)N(c3ccc4ccccc4c3)C2=O)cc1OC the “hERG current change (%, negative = inhibition) at 1uM” value was 2.16%.
For COc1ccc2ccn(C)c2c1, the “hERG current change (%, negative = inhibition) at 1uM” value was 10.9%.
For Cc1cccn2c(=O)c(/C=N/O)c(N3CCCCC3)nc12, the “hERG current change (%, negative = inhibition) at 1uM” value was 4.69%.
With COc1cc2c(cc1NC(=O)CN1CCN(S(=O)(=O)c3ccc(F)cc3)CC1)oc1ccccc12 the “hERG current change (%, negative = inhibition) at 1uM” value was 7.76%.
